# Test results reported in PubChem BioAssay AID686970 (National Center for Advancing Translational Sciences (NCATS), 2013).
# The campaign covered roughly 360,000 compounds. About 6,000 (1.7%) were called active. Inconclusive means that the source gave no clear call. Such entries were picked first, then a sample of the others. The call rests on the fitted dose curve; in most records, active means well fitted cell-killing curve with a large enough effect; inconclusive means small, poorly fitted or top-dose-only effect, or effect the other way; inactive means flat fitted curve, though single readings scatter. Potencies of inconclusive entries are left out as doubtful fits.
# Test: qHTS for induction of synthetic lethality in tumor cells producing 2HG: qHTS for the HT-1080-NT fibrosarcoma cell line;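 further: NT is the 2HG producing partner of a matched IDH1 knockdown line; nearly all actives have a fitted effect of over 55% in size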;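 on activity, negative = less viability: 0% = DMSO-treated cells and -100% = media-only wells without cells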
# Conditions: HT-1080-NT fibrosarcoma viability, CellTiter-Glo ATP luminescence, 48 h; activity, negative = less viability: at 46.1 µM (top of the series) unless noted
# In short: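 Toxicity toward the 2HG-producing NT line was scored as %Activity, normalised to DMSO and no-cell wells, from CellTiter-Glo luminescence after 48 hours' treatment.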
# Potency means the concentration at half of the fitted maximal effect; tags describe the fitted curve by direction and shape.
SMILES,Potency,"activity, negative = less viability"
CCN1/C(=C/C=C/c2oc3ccc4ccccc4c3[n+]2CC)Oc2ccc3ccccc3c21,"inconclusive [cytotoxic, full curve, poor fit]",
Cc1ccc(S(=O)(=O)N2CCOCC2)cc1NC(=O)COC(=O)COc1cccc2c1OC(C)(C)C2,,inactive: 10.2%
O=C(NCCc1csc(-c2cccnc2)n1)c1c(F)cccc1F,"inconclusive [rising, partial curve]",
Cc1nc(N)sc1C(=O)N/N=C/c1c[nH]c2ccccc12,"inconclusive [cytotoxic, single point]",
O=C(/C(=C/c1cccc(Cl)c1)c1nc2ccccc2[nH]1)c1ccccc1,active: 5.17 µM,
N=C1CCC(=N)c2c1c(O)c1ccccc1c2O,active: 23.1 µM,
Cc1ccc(C(C(=O)NCc2ccccc2)N(Cc2cccs2)C(=O)c2ccc3c(c2)OCCO3)cc1 (centres undefined),"inconclusive [cytotoxic, single point]",
COc1ccc(CNC(=O)C2CCCN2S(=O)(=O)c2ccccc2)cc1 (centres undefined),,inactive: 10.9%
C/C(=N\NC(=O)CN(c1ccccc1)S(C)(=O)=O)c1ccccc1O,,inconclusive: -19.9% [cytotoxic]
Cc1ccc(S(=O)(=O)NC2c3cccc4cccc(c34)C2Sc2n[nH]c(N)n2)cc1 (centres undefined),"inconclusive [cytotoxic, single point]",
CN(CC(=O)NCc1ccc(F)cc1)S(=O)(=O)c1cccc2nsnc12,,inactive: 0.0143%
O=C(c1cc(S(=O)(=O)N2CCOCC2)c(Cl)cc1Cl)N1CCN(S(=O)(=O)c2cccc(F)c2)CC1,,inactive: -3.23%
Cc1ccc(CS(=O)(=O)c2ncc(Cl)c(C(=O)Nc3ccc(OC(F)F)cc3)n2)cc1,active: 16.4 µM,
CN(C)CCOCCOc1ccc(Cl)c2ccccc12,active: 18.4 µM,
CCOc1ccc(N=c2scc(-c3ccccc3)n2CCO)cc1,"inconclusive [cytotoxic, single point]",
S=C(NCCc1ccccc1)Nc1ccc(Cl)cc1Cl,"inconclusive [cytotoxic, single point]",
O=C(O)c1c(-c2ccccc2)c(-c2ccccc2)nc2ccccc12,,inactive: 0.0421%
O=C(CCC1CCCC1)Nc1ccc(C(=O)NCc2cccnc2)cc1,active: 5.17 µM,
Cc1ccccc1CN1C[C@@H]2C[C@@H](c3cn[nH]c3-c3ccc(F)cc3)N3CCC[C@@]23C1=O,"inconclusive [cytotoxic, full curve, poor fit]",
CCOC(=O)C(C(=O)OCC)C(Nc1cccc(Br)c1)c1ccccc1 (centres undefined),"inconclusive [cytotoxic, single point]",
COc1cc(Cn2c3ccc(NC(=O)CCc4ccc(O)cc4)cc3c(=O)n2C)ccc1F,"inconclusive [cytotoxic, single point]",
CCN(CC)CCCNC(=O)c1cc2c(-c3cccc(OC)c3)nn(C)c2s1,"inconclusive [cytotoxic, single point]",
COc1ccc(OC)c(C2=Nn3c(nnc3C3CCCCC3)SC2)c1,"inconclusive [cytotoxic, partial curve]",

SMILES,Potency,"activity, negative = less viability"
Cc1nnsc1C(=O)N/N=C/c1cccc(C(F)(F)F)c1,"inconclusive [rising, single point]",
O=C(Oc1cccc2cccnc12)c1ccc2c(c1)OCCO2,active: 23.1 µM,
CC(C)N(C)C1CCN(C(=O)Nc2ccc(Cl)c(Cl)c2)CC1,"inconclusive [cytotoxic, single point]",
CCCCN(C=O)c1c(CC)nc2ccc(C(=O)N3CCN(S(=O)(=O)CC)CC3)cn12,"inconclusive [rising, single point]",
Cc1noc(C)c1S(=O)(=O)Nc1ccc(C(=O)N2CCN(c3ccc(Cl)cc3)CC2)cc1,,inactive: -25.9%
OC[C@@H]1CN(Cc2ccc(Cl)cc2)C[C@H](n2cnc3c(N4CCOCC4)ncnc32)O1,"inconclusive [rising, partial curve]",
O=C(N=Nc1c(O)n(Cc2ccccc2)c2ccccc12)c1cc2ccccc2cc1O,,inactive: -5.53%
Cc1cc(N2CCCCC2)nc2ccc(NC(=O)CCC(=O)NCCC(C)C)cc12,,inactive: -0.815%
CCC1CCCCN1CCCNC(=O)c1cc2c(=O)[nH]c3ccccc3c2n1C (centres undefined),,inactive: 8.6%
Cc1nc2c(OCc3ccc(C(F)(F)F)cc3)cccn2c1N(C)C(=O)CCC1CCCC1,"inconclusive [cytotoxic, single point]",
Cc1nn(-c2ccc(F)cc2)c2sc(C(=O)OCC(=O)N3CCC(C)CC3)cc12,,inconclusive: -2.16% [cytotoxic]
CCOC(=O)N1CCC(NC(=O)CN2C(=O)CCSc3ccccc32)CC1,,inactive: 2.48%
COc1ccc(Cl)cc1NC(=O)CSc1nnc(Cc2cccn2C)n1-c1ccc(F)cc1,"inconclusive [cytotoxic, single point]",
CN=c1nc(-c2ccccc2)n(-c2ccccc2)s1,,inactive: 22.2%
O=c1c(Cl)c(N2CCOCC2)cnn1-c1ncc(C(F)(F)F)cc1Cl,"inconclusive [rising, single point]",
CCc1nc2ccc(C(=O)N(C)Cc3ccco3)cn2c1N(C)CCCc1ccccc1,"inconclusive [cytotoxic, single point]",
O=c1cc(C(F)(F)F)nc(SCc2cccc3ccccc23)[nH]1,"inconclusive [cytotoxic, single point]",
CCN(CCCNC(=O)c1cc2c(-c3cccc(OC)c3)nn(C)c2s1)Cc1ccccc1,"inconclusive [cytotoxic, single point]",
CCOc1nc(-c2ccccc2O)nc2ccccc12,,inactive: 2.39%
Cc1cnc(NC(=O)Cc2ccc(C)c(C)c2)s1,"inconclusive [cytotoxic, single point]",
Cc1ccc(S(=O)(=O)N(C)C[C@H]2Oc3ccc(NC(=O)C4CCCCC4)cc3C(=O)N([C@H](C)CO)C[C@H]2C)cc1,"inconclusive [cytotoxic, single point]",
Cc1ccc(N(C(C)C(=O)Nc2cc(Cl)ccc2Oc2ccccc2)S(C)(=O)=O)cc1 (centres undefined),"inconclusive [cytotoxic, single point]",
O=C(c1cccc(C(=O)N2CCN(c3ccccc3)CC2)c1)N1CCN(c2ccccc2)CC1,,inactive: 2.11%

SMILES,Potency,"activity, negative = less viability"
COc1cc(CN(C)CCc2ccccc2)ccc1OCc1ccccc1,"inconclusive [cytotoxic, single point]",
COc1cccc(CNc2nc3cc(-c4ccc(OC)cc4C)sc3c(=O)n2C)c1,"inconclusive [cytotoxic, single point]",
COC(=O)c1ccc(C2C(C(=O)OCC(C)C)=C(C)N=C3SCCC(=O)N32)cc1 (centres undefined),"inconclusive [cytotoxic, single point]",
C[C@H](CO)N1C[C@H](C)[C@@H](CN(C)Cc2ccncc2)Oc2c(cccc2N(C)C)C1=O,"inconclusive [rising, single point]",
Cn1c(CCNC(=O)c2ccco2)nc2cc(NC(=O)c3ccco3)ccc21,,inactive: 3.01%
C/C(=N\Nc1nc(C)cc(-c2ccccc2)n1)c1ccc(O)cc1,active: 10.3 µM,
CSc1ccc(/C=C/C(=O)c2ccc(NC(=O)Cc3ccccc3)cc2)cc1,"inconclusive [cytotoxic, single point]",
C[C@@]12C(=O)N(c3ccc(Cl)cc3)C(=O)N1[C@@H]1c3ccccc3OC[C@@H]1[C@H]2c1ccccc1,"inconclusive [rising, partial curve]",
O=S(=O)(Nc1ccc(-c2ccc(NS(=O)(=O)c3ccccc3)cc2)cc1)c1ccccc1,"inconclusive [cytotoxic, single point]",
O=C(CCNS(=O)(=O)c1ccccc1)NNC(=O)COc1ccc(Cl)cc1,,inactive: 1.68%
CN(C)CCCNc1nc2cc(-c3cccc(Cl)c3)sc2c(=O)n1C,"inconclusive [cytotoxic, single point]",
COC(=O)c1cc(=O)n(CCc2ccccc2F)c(=Nc2ccc(F)c(Cl)c2)s1,active: 20.6 µM,
CCC(C)C1Nc2ccc(C(=O)NCCc3ccc(OC)c(OC)c3)cc2NC1=O (centres undefined),"inconclusive [cytotoxic, single point]",
O=C(NCCCc1ccccn1)C1CCC(=O)N(Cc2cccc(F)c2)C1 (centres undefined),,inactive: 1.61%
Cc1ccc(Nc2nc(Nc3ccc(C)cc3)nc(SC3=NCCS3)n2)cc1,active: 10 µM,
CCCCn1nnnc1C(c1cc2ccccc2o1)N1CCN(C/C=C/c2ccccc2)CC1 (centres undefined),"inconclusive [cytotoxic, single point]",
COCn1c(-c2cccc(Br)c2)nc2ccccc21,"inconclusive [cytotoxic, single point]",
Cc1ccc(NC(=O)NC(=O)c2ccccc2)cc1F,,inconclusive: 33.1%
CCN(CC)CC#CCC(C)(c1ccccc1)c1ccccc1,"inconclusive [cytotoxic, single point]",
Cn1c(=O)c2c(nc(NCc3cccnc3)n2Cc2ccc(Cl)cc2)n(C)c1=O,"inconclusive [cytotoxic, partial curve]",
CC(=O)Nc1ccc(SCC(=O)c2cc(C)ccc2C)cc1,"inconclusive [cytotoxic, partial curve]",
CCCN1CNc2c(c(=O)[nH]c(=S)n2CCCc2ccccc2)C1,,inactive: -23%
COc1ccc(Cl)cc1NC(=S)NCc1ccco1,"inconclusive [cytotoxic, single point]",
